Columns and labels:
rat aortic rings = assay: Contractile response of rat aortic rings to phenylephrine; format: cell-based
Description: Male Sprague-Dawley (1 50-200 g) rats were anesthetized with pentobarbital (50 mg/kg IP), and a median sternotomy was performed followed by the rapid removal of the thoracic aorta. The adventitia was removed, but the endothelium was left intact. The aorta was cut into 2-3 mm rings and individual rings were placed into a single well of a twenty four well culture plate and incubated at 37° C. under 95% O2-5% CO2. Each well contained 1 mL of DMEM/F12 containing 1% fetal bovine serum, streptomycin (100 μg/ml), penicillin (100 units/ml) and amphotericin (0.25 μg/ml). Aortic rings were incubated for 24 hours prior to contractility measurements with the following combinations of steroids, and antisense/nonsense oligonucleotides (3 μmol/L): • Corticosterone (10 mnol/L)+11β-HSD2 antisense or 11β-HSD2 nonsense oligomer • Corticosterone (10 nmol/L)+11β-HSD1 antisense or 11β-HSD1 nonsense oligomer • In 11-dehydrocorticosterone experiments with vehicle alone • 11-dehydrocorticosterone (100 nmol/L)+11β-HSD1 Antisense or 11β-HSD1 nonsense oligomer
Antisense phosphorothioate oligonucleotides, targeted to block either 11β-HSD2 or 11β-HSD1 gene expression, were obtained from Research Genetics, Huntsville Ala. Antisense oligomers complementary to 20 bp sequences spanning the ribosome binding/translation start site were used. Oligomer sequences were: 5′-CATAACTGCCGTCCAACAGC-3′ (SEQ ID NO. 2) for 11β-HSD1 Antisense and 5′-AGGCCAGCGCTCCATGACTT-3′ (SEQ ID NO 4) for 11β-HSD2 antisense. In control experiments the corresponding sense sequence was used as the nonsense oligomer. […]
For contraction measurements, aortic rings were suspended by tungsten wires with 1 g of tension and placed in a vessel bath containing serum free DMEM/F12 media at 37° C. aerated with 95% O2-5% CO2, at pH 7.4. […] The intensity of contraction was assessed by use of a Narishige micromanipulator and model FT03 force transducer (Grass Instrument Co. West Warwick, R.I.). Measurements were recorded on computer using the Labview 4.1 Virtual Instrument System (National Instruments, Austin, Tex.).

11β-HSD1 Reductase = 11β-HSD1 Reductase (Rattus norvegicus, UniProt P16232); assay: Metabolism of 3H-11-dehydrocorticosterone back to corticosterone by aortic rings; format: cell-based; set-up: from tissue; host or cells: rat (Sprague-Dawley) thoracic aortic rings, endothelium intact; conditions: with 11-keto-progesterone
Description: The effects of 11β-HSD1 and 11β-HSD2 antisense on the inter-conversion of ^3H-corticosterone and ^3H-11-dehydro-corticosterone by aortic rings was also determined. Rings (2-3 mm) obtained in a similar manner as those in the contraction studies, were incubated in 1 ml DMEM/F12 media containing 1% FBS at 37° C. under 95% O2-5% CO2 in 24-well culture plates. Rings were incubated for 24 hours with: • (i) ^3H-corticosterone (10 nmol/L)±11β-HSD2 or 11β-HSD1 antisense (3 μmol/L); control groups received nonsense oligomers. The amount of ^3H-11-dehydro-corticqsterone in the incubation medium after 24 hrs was then measured. The effects of 11β-HSD1 antisense/nonsense were measured in quadruplicate (n=6 aortic rings per well) and the effects of 11β-HSD2 antisense/nonsense in duplicate (n=8 aortic rings per well), • (ii) ^3H-11-dehydro-corticosterone (10 nmol/L)±11β-HSD1 antisense (3 μmol/L); this experiment was performed in duplicate (n=10 aortic rings per well). Control groups were incubated with the appropriate nonsense oligomer. ^3H-corticosterone in the incubation medium after 24 hrs was then measured. In this experiment, aortic rings were also analyzed for ^3H-corticosterone content. Rings from duplicate incubations (total n=20) were blotted dry, pooled and homogenized in 50 % methanol using a Polytron. […]

Chain of UniProt P16232 (P16232 whole entry): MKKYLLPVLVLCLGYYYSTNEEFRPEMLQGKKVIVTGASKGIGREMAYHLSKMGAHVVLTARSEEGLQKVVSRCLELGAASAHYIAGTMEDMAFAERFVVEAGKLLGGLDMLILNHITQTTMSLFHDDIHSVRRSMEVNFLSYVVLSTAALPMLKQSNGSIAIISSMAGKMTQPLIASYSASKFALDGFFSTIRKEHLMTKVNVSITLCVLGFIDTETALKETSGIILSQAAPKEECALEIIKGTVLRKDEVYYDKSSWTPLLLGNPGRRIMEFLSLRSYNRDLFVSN

Compound: 11β-HSD1 antisense: Antisense phosphorothioate oligonucleotide blocking 11β-HSD1 gene expression, 5′-CATAACTGCCGTCCAACAGC-3′ (antisense CATAACTGCCGTCCAACAGC; all phosphorothioate, sugars by position and methylation of C not given here)
- ability of 11-dehydro-corticosterone to amplify the contractile response to phenylephrine, compared to nonsense oligomers (rat aortic rings; rings incubated 24 hours with 11-dehydro-corticosterone 100 nmol/L and antisense 3 μmol/L, significant at 100 nmol/L and 1 μmol/L phenylephrine): attenuated

Compound: CC(=O)[C@H]1CC[C@@H]2[C@@H]3CCC4=CC(=O)CC[C@]4(C)[C@@H]3C(=O)C[C@]12C [11-Keto-progesterone]
- ability of 11-dehydro-corticosterone to amplify the contractile effects of phenylephrine (rat aortic rings; with 11-keto-progesterone): diminished
- metabolism of 11-dehydro-corticosterone back to corticosterone (11β-HSD1 Reductase): decreased

Compound: C[C@]12CC(=O)[C@H]3[C@@H](CCC4=CC(=O)CC[C@@]43C)[C@@H]1CC[C@@H]2C(=O)CO [reference compound]
- effect of the steroid on contractile responses to phenylephrine (rat aortic rings; rat aortic rings, 11-dehydro-corticosterone 100 nmol/L, 24 hours): amplifies the contractile responses

From patent US20060148725A1, “Selective 11beta HSD inhibitors and methods of use thereof” (The Miriam Hospital, priority 2001, published 2006)
